In PubChem BioAssay (NCI):
Where “and” joins values, the source holds several entries; their conditions need not be identical. Equal values may be shown once.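 Interpolation was linear, between the two tested concentrations surrounding the appropriate level; five concentrations were tested over 48 hours in 96-well plates. GI50 = concentration required for 50% inhibition of growth. The concentration for full growth arrest is given as TGI.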

The compounds below were run on NCI-H322M lung (assay: inhibition of tumour cell growth, NCI panel, 48 h).

Compound	TGI	GI50 [µM]
CN1C(=O)n2c(nc3ccccc32)C(N=[N+]=[N-])(N=[N+]=[N-])C1=O (stereo unspecified)	> 100 µM	–
O=C(O)/C(Cl)=C(\Cl)Nc1cccc(C(F)(F)F)c1	31.2 µM	–
CCOC(=O)Cn1c(=O)c2nc(SC)sc2n(-c2ccc(C)cc2)c1=S	97.5 µM	–
COC(C)(C)C(O)C(O)C[C@H](C)C1CC=C2C1(C)CCC1[C@@]3(C)CCC(OC(C)=O)C(C)(C)C3CC(OC3OC(COC(C)=O)C(O)C(O)C3O)[C@@]21C (stereo partly specified)	> 10 µM	–
OCCN1CCN(CCO)Cc2ccccc2OCCOc2ccccc2C1	> 100 µM	–
Cc1cc(S(=O)(=O)Nc2nc(N)n(-c3cnc4ccccc4n3)n2)c(S)cc1Cl	> 100 µM	–
COC(=O)C1([C@@H]2C[C@@H](O)[C@]3(C)CC/C=C(\C)CCC[C@H](C)[C@H](O)[C@@H]2O3)CC1	> 100 µM	–
CCCCCCCCCOC(=S)NC	> 100 µM	–
C[C@]12CCC3c4ccc(OC(=O)c5ccccc5)cc4CC[C@H]3C1CC[C@@H]2OC(=O)C12OC1CCC2=O (stereo partly specified)	13.7 µM	–
CC(=O)N1NC(c2ccccc2)=CC(=O)/C1=C/C(=O)c1ccccc1	> 100 µM	–
Cc1cc(C)c(C(=O)O)c(N)c1O	> 100 µM	–
CC(=O)OCc1nc(C#N)c(N)o1	> 100 µM	–
CCOC(=O)C(NNS(=O)(=O)c1ccc(C)cc1)S(=O)(=O)C(F)(F)C(F)(F)C(F)(F)C(F)(F)F (stereo unspecified)	> 100 µM	–
CCOC(=O)C1Cc2c(ccc(OC)c2OC)C(=O)C1N (stereo unspecified)	> 100 µM	–
COc1cc(-c2c[nH]c3ccccc23)nc(-c2c[nH]c3ccccc23)n1	19.7 µM	–
Cn1c(=O)n(-c2c3ccccc3c(Cl)c3ccccc23)n(C(C)(C)C)c1=O	> 100 µM	–
COc1cc2c(c(OC)c1OC)-c1ccc([O-])c(=O)cc1[C@@H](NC(C)=O)CC2.COc1cc2c(c(OC)c1OC)-c1ccc([O-])c(=O)cc1[C@@H](NC(C)=O)CC2.[Cu+2]	> 100 µM	4.33
CCCCCCCC[N+](C)(C)Cc1ccc(C[N+](C)(C)CCCCCCCC)cc1	> 100 µM	–
O=S(=O)(O)c1cc(S(=O)(=O)O)c2c(N=Nc3cccc4ccccc34)c(O)ccc2c1	> 100 µM	–
CC[C@H](C)c1occ2c(O)c(C(=O)O)c(=O)cc-2c1C	71 µM	–
O=S(=O)(NCCNc1cc(-c2cn(-c3ccccc3)nc2-c2cccc(O)c2)ccn1)c1ccc(C(F)(F)F)cc1	17.3 µM	3.35
COc1cccc(/C=C(/C(=O)O)c2cc(OC)c(OC)c(OC)c2)c1	> 100 µM	–
CC1(C)C(O)c2ccccc2OC1N1CCN(C2Oc3ccccc3C(O)C2(C)C)CC1 (stereo unspecified)	> 100 µM	–
O=C1CCC(=O)N1CNc1ccc2c(c1)Sc1ccccc1O2	> 100 µM	–
CN(C)c1ccc(N=Nc2cccc3ccoc23)cc1	> 100 µM	–

Compound	TGI	GI50 [µM]
CCCCCCCCCCCCCOC(=O)c1c(C)[nH]c(/C=C2\N=C(c3ccc[nH]3)C=C2OC)c1C	> 100 µM	1.36
CC1(C)S[C@@H]2[C@H](NC(=O)CCC[C@@H](N)C(=O)O)C(=O)N2[C@H]1C(=O)O	> 50 µM	–
CC(=O)O[C@H]1CC[C@H]2[C@@H]3CCc4cc(O)c(I)cc4[C@H]3CC[C@]12C	29.5 µM	–
CCOC(=O)CSc1nc2ccccc2c(=O)n1N	> 100 µM	–
CC1=CC(C)C(C)N(CCNC(=O)Nc2ccccc2)c2ccccc21 (stereo unspecified)	55.4 µM	–
Oc1c(Br)cc(Br)cc1CN(Cc1cc(Br)cc(Br)c1O)C1CCCCC1	> 100 µM	–
O=C1CC2[C@@H](N3CCCC3)CCC(N1Cc1ccccc1)C2(O)O (stereo partly specified)	> 100 µM	–
CS(=O)(=O)c1ccc(N/N=C/c2c(-c3ccc(S(C)(=O)=O)cc3)[nH]c3ccc(F)cc23)cc1	> 50 µM	2.34
Nn1c(CCCl)nc2c(Br)cc(Br)cc2c1=O	86.5 µM	–
CS(=O)(=O)c1nc(N)nc2nc[nH]c12	> 100 µM	–
CCC1CCc2nc3sc(C(=O)Nc4ccccc4F)c(N)c3cc2C1 (stereo unspecified)	> 100 µM	> 100
CN(C)CC/C=C1\c2ccccc2Sc2ccc(Cl)cc21	20.9 µM and 24.2 µM	7.81
COc1cc(CC2CCc3nc(N)nc(N)c3C2)cc(OC)c1OC (stereo unspecified)	> 100 µM	–
C1COC2SC3=C(SC(=C4SC5=C(SCCS5)S4)S3)SC2O1 (stereo unspecified)	> 100 µM	–
Cc1c(O)c(OC2OC(CO)C(O)C(O)C2O)cc2c1CC[C@@H]1C2(C)C(=O)C[C@]2(C)[C@@H]([C@@](C)(O)C(O)/C=C/C(C)(C)O)[C@H](O)C[C@@]12C (stereo partly specified)	> 100 µM	–
CNC(=O)Nc1cc2c3c(c1)CCCN3CCC2	> 10 µM	–
c1ccc(COCC23CCN(Cc4ccccc4)C(CC(OCc4ccccc4)C2)S3)cc1 (stereo unspecified)	> 100 µM	–
CCSC(=Nc1ccccc1)SC	> 100 µM	–
COC1Cc2c(C)c(OC(C)=O)c3cccnc3c2O1 (stereo unspecified)	> 100 µM	–
O=c1c(O)c(-c2ccc(O)c(O)c2)oc2cc(O)ccc12	63.5 µM	–
Cc1cc(N(CCC#N)CCC#N)ccc1/C=C1/CN(N2C(=O)/C(=C/c3ccc(N(CCC#N)CCC#N)cc3C)N=C2c2ccccc2)C(c2ccccc2)=N1	> 100 µM	–
CCOC(=O)CSc1nc(-c2ccc(OC)cc2)c(C#N)c(=O)[nH]1	> 100 µM	–
CC(=O)O[C@H](C[C@H](C(C)C)N(C)C(=O)[C@@H](NC(=O)[C@H]1CCCCN1C)C(C)C)c1nc(C(=O)N[C@@H](Cc2ccccc2)C[C@H](C)C(=O)O)c(C)s1	> 25 µM	< 0.0025
Cc1ccc(S(=O)(=O)Nn2c(-c3ccccc3)c(C#N)c(-c3ccc(Cl)cc3)c(C#N)c2=O)cc1	82.5 µM	–
